63 compounds from PubChem BioAssay (NCI) can be followed below.

This assay deals with NCI-H322M lung. As to the kind of experiment: NCI-60 cell line screen, 48 h.

“And” between values parts separate entries of the source, which are not always exact repeats. Equal entries are not always repeated.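 Step 1: Grow cells in 96-well plates. Step 2: Expose to compound for 48 hours at 5 concentrations. Step 3: Interpolate endpoints linearly; if unreached, use highest concentration. GI50 marks 50% less growth. At the TGI there is no net growth.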

`COc1cc(O)cc(/C=C/c2ccc(O)cc2)c1`: the TGI was 98.2 µM.
Consider `Cc1nc(Cl)nc(Cl)c1C`, for which the TGI was over 100 µM.
On the same count and under the same terms, the figure for `Cn1c2ccccc2c2c(-c3ccccc3)[n+]3ccccc3nc21` is over 100 µM; for `CC(=O)OC1CCN(C(=O)c2ccccc2)CC1CC1(c2cc3ccccc3[nH]2)OCCO1` (stereo unspecified) it is over 100 µM.
Regarding `COc1ccc(N(CC(=O)NCCC[Te]c2ccccc2)C(=O)c2ccccc2)cc1`, the GI50 is 2.87 µM and the TGI turned out to be 8.18 µM.
Compound `O=C(O)CNC(=O)CO/N=C1/C(c2c(O)[nH]c3ccccc23)=Nc2ccccc21` yielded a TGI of over 100 µM.
As for `Oc1ccc(-c2nnc3sc(-c4ccc(F)c(Oc5ccccc5)c4)nn23)cc1`, the GI50 was 49.5 µM and the TGI is over 100 µM.
On to `COc1ccc(C(=O)OCC2OC(n3cnc4c(=S)nc[nH]c43)C(OC(=O)c3ccc(OC)cc3)C2OC(=O)c2ccc(OC)cc2)cc1` (stereo unspecified), for which the TGI was over 100 µM.
Still for that read-out and setting: the figure for `O=[N+]([O-])C(Cl)C(Cl)C(Cl)=C(Cl)Cl` (stereo unspecified) is over 100 µM; for `COc1c(C)c(C/C=C(\C)CCCCO[Si](C(C)C)(C(C)C)C(C)C)c(OC)c2ccccc12` it is over 100 µM.
Regarding `COc1ccc(-c2[nH]c3ccccc3c2C=C(C#N)C#N)cc1`, the GI50 is 0.49 µM and the TGI was over 100 µM.
`CC(=O)c1cccc(NC(=O)/C(=N\NC(C)(C)C)c2c(O)c3ccccc3oc2=O)c1` returned a TGI of over 100 µM.
Same read-out and setting: the figure for `O=S1c2ccccc2N=C(c2ccc3ccccc3c2)CC1C1=CC=CCC1` (stereo unspecified) is 69.7 µM; for `COC(OC)C1OC(CO)C(n2cc(C)c(=O)[nH]c2=O)C1O` (stereo unspecified) it is over 100 µM.
In turn, `COc1cc(C2=NN(C)C(c3ccc([N+](=O)[O-])o3)C2)cc(OC)c1OC` (stereo unspecified) gave a TGI of over 100 µM.
`O=C(CN1CCN(c2ncnc3ccccc23)CC1)Nc1ccc(Cl)cc1C(=O)c1ccccc1Cl`: the GI50 was 0.528 µM and the TGI was 8.49 µM.
`CCN(CC)CC(=O)Nc1c(C(N)=O)nnn1Cc1cc(Cl)c(C(=O)c2ccc(Cl)cc2)c(Cl)c1` displayed a TGI of over 100 µM.
Still for that read-out and setting: the figure for `Nc1nc(N)c(N=O)c(Nc2ccc(O)cc2)n1` is over 100 µM.
The same measure, in the same setting: the figure for `COc1ccc2c(c1)c(=O)c1ccccc1n2/C=C/C(=O)O` is over 100 µM.
The same measure, in the same setting: the figure for `COc1ccc(C(=O)C(c2ccc(OC)cc2)C2(O)C(=O)Nc3ccccc32)cc1` (stereo unspecified) is over 100 µM; for `C=C1C(=O)O[C@@H]2C[C@@]3(C)CCC[C@H](C)C3=C[C@H]12` it is 29.5 µM.
`Cn1ccnc1C(=O)/C=C/c1ccc(C(=O)Nc2ccc(Cl)cc2)cc1`: the GI50 was 0.913 µM and the TGI is 4.27 µM.
`COc1cccc(C2c3cc4c(cc3OC(C)(O)C2C)OCO4)c1O` (stereo unspecified) showed a TGI of over 95.4 µM.
For `COC(=O)Nc1nc2ccc(Oc3ccc(NC(=O)Nc4cccc(C(=O)O)c4)cc3)cc2[nH]1`, the GI50 is over 19.3 µM and the TGI was over 25 µM.
For the compound `CC(=O)N1N=C2/C(=C/c3ccccc3)CC(C)CC2C1c1ccccc1` (stereo unspecified), the GI50 was 18.9 µM and the TGI was 39.8 µM.
Regarding `CCOc1ccc(N=NC2C(=O)N(C(=O)CC(=O)Nc3ccccc3OC)N=C2C)cc1` (stereo unspecified), the TGI is over 100 µM.
Turning to `CNC(=O)CN(CC(=O)NC)C(=O)NC`, the TGI was over 100 µM.
Same read-out and setting: the figure for `COC(=O)C1=C(O)c2cc(OC)c(OC)c(OC)c2[C@H](c2cc(OC)c(OC)c(OC)c2)C1C(=O)OC` (stereo partly specified) is over 100 µM; for `COC(=O)/C=C/c1ccc2c(c1)CCC2` it is over 100 µM; for `N#Cc1c2ccc([N+](=O)[O-])cc2c(=O)n2c1sc1ccc(C(F)(F)F)cc12` it is over 100 µM.
On the same count and under the same terms, the figure for `O=C1/C(=C\c2ccc(Cl)cc2Cl)Sc2scc(-c3cccc([N+](=O)[O-])c3)[n+]21` is 35.2 µM; for `CC1=NN(c2ccccc2)C(=O)C1N=Nc1ccc([As](=O)(O)O)c(O)c1` (stereo unspecified) it is over 100 µM; for `O=C(O)CN1CCNCCN(CP(=O)(O)O)CC1` it is over 100 µM.
The same measure, in the same setting: the figure for `O=c1[nH]c(Nc2ccc(F)c(Cl)c2)nc2nc[nH]c12` is over 100 µM; for `CC(C)/C(Cl)=N\OC(=O)Nc1cccc(F)c1` it is 26.7 µM; for `CCOC12OC3=C(CC1CC1=C(CCC1=O)O2)C(=O)CC3` (stereo unspecified) it is over 100 µM.
`Cc1ccc(CC(=O)Nc2ccc(NC(=O)/C=C/NC(=O)/C=C/c3ccc(-c4ccccc4)cc3)cc2C(=O)c2ccccc2)cc1` showed a TGI of 17.7 µM.
`O=c1cc(-c2cccc(C(F)(F)F)c2)[nH]c2cc3c(cc12)OCO3`: the GI50 was 0.689 µM; the TGI was 50 µM and > 100 µM.
Compound `COC(=O)c1ccc(OCc2ccc3nc(OC)c(OC)nc3c2)cc1` returned a TGI of over 100 µM.
The same measure, in the same setting: the figure for `OC12c3ccccc3C1(N1CCOCC1)CCCCC21OCCCO1` (stereo unspecified) is over 100 µM.
The same measure, in the same setting: the figure for `C/C(=N\NS(=O)(=O)c1ccc(C)cc1)C(CN1CCOCC1)C(c1ccccc1)c1c(O)c2ccccc2oc1=O` (stereo unspecified) is over 100 µM.
As for `COc1ccc2nc(-c3cc(-c4cc(OC)c(OC)c(OC)c4)n[nH]3)[nH]c2c1`, the GI50 is 2.47 µM and the TGI is 9.05 µM.
For `COc1ccc2c(c1)c(-c1ccc(-c3cn(S(=O)(=O)c4ccccc4)c4ccc(OC)cc34)s1)cn2S(=O)(=O)c1ccccc1`, in that order: over 100 µM and over 100 µM.
Regarding `O=S(=O)(/C=C/c1ccc(Cl)cc1Cl)Cc1ccccc1CS(=O)(=O)/C=C/c1ccc(Cl)cc1Cl`, the TGI was over 100 µM.
The same measure, in the same setting: the figure for `CC(=O)OC(/C=C1/C=CC(=O)O1)COC(=O)c1ccccc1` (stereo unspecified) is over 31.2 µM; for `CC1=NN(C(=O)CC(=O)Nc2ccccc2C)C(=O)C1N=Nc1ccc(C(=O)O)cc1` (stereo unspecified) it is over 100 µM; for `C/C(=C\C(C)COCc1ccccc1)[C@H](COCc1ccccc1)OCc1ccccc1` (stereo partly specified) it is over 100 µM.
Still for that read-out and setting: the figure for `CCOC(=O)C12CCCC1(O)N(NC(=O)c1ccccc1)C(C)=C2C(=O)OC` (stereo unspecified) is over 100 µM; for `COc1ccc(CCN2C(=O)C=CC2=O)cc1OC` it is 33.3 µM; for `[O-]c1c2c(nn1-c1ccccc1)c1ccccc1c[n+]2Cc1ccccc1` it is over 100 µM.
Regarding `CCC(=O)Nc1ccc(N=Cc2cccc(Oc3ccccc3)c2)cc1`, the TGI was over 100 µM.
Same read-out and setting: the figure for `CN(C)CCNC(=O)c1cc2ccccc2c2nc3ccccc3nc12` is 3.04 µM; for `O=c1[nH]nc(Cc2ccccc2)n1/N=C/c1c(O)ccc2ccccc12` it is 57.7 µM.
For `Cc1cc2c(cc1Cl)SC1=CC(=O)N(c3ccccc3)C1=NS2(=O)=O`, the GI50 was over 100 µM and the TGI was over 100 µM.
Turning to `COc1cc2nc(-c3cnc(N(C)C)nc3)nc(NC3CCN(Cc4ccccc4)CC3)c2cc1OC`, the GI50 is 1.7 µM and the TGI is 3.13 µM.
`O=C1CCCCC/C1=C\c1ccc(F)cc1`: the TGI was over 100 µM.
Same read-out and setting: the figure for `Cc1ccc([N+](=O)[O-])c2c(NCCNC(=O)Cn3ccnc3[N+](=O)[O-])ccnc12` is over 100 µM.
Same read-out and setting: the figure for `CCOC(=O)/C(O)=C(/c1n[nH]c(=O)c2ccccc12)[N+](=O)[O-]` is over 100 µM; for `Cc1ccc(NC(=O)CCC(CC(=O)C(C)(C)C)=NNC(=O)C(=O)NN)cc1C` it is over 100 µM; for `C=CCCCC1CCCNC1=O` (stereo unspecified) it is over 100 µM.
In the case of `COc1ccc2c(c1)C(=O)/C(=C/c1cccc(OCC(=O)Nc3nc4c(s3)CCCC4)c1)O2`, the GI50 was 13.2 µM and the TGI turned out to be 26.5 µM.
Turning to `CN1C(=O)c2ccccc2NC(=O)c2cnn(C)c21`, the TGI is over 100 µM.
Same read-out and setting: the figure for `CC(C)(C)NCc1cc(Nc2ccnc3cc(Cl)ccc23)cc(-c2ccc(Cl)cc2)c1O` is 13.2 µM.
